# According to ChEMBL document CHEMBL4888484, “Replenishing the malaria drug discovery pipeline: Screening and hit evaluation of the MMV Hit Generation Library 1 (HGL1) against asexual blood stage Plasmodium falciparum ,using a nano luciferase reporter read-out” (2022):
# Among all 150,000 compounds or so, about 540 (0.36%) showed an effect of 50% or more. The list shows a part of the results.
# Tested on: Plasmodium falciparum
# Assay: Primary screen in NF54 nanoGlo assay, in single point, at 2uM, 72h; a lower Z score goes with more inhibition
# Assay type: functional, Erythrocyte
# Details: timepoint 72 hour
SMILES,% Inhibition,Z score
CC(C)Cc1nc(CNC(=O)CCNS(C)(=O)=O)no1,4%,-0.66
CC(C)c1nccc(NCCCc2cn[nH]c2)n1,13%,-1.66
COC(=O)C1(NCCC(=O)N2CCc3ccccc3C2)CCCC1,-7%,0.92
COc1nscc1-c1noc([C@@H]2CCCN2C)n1,-5%,0.8
C[C@@H](CS(=O)(=O)NCc1ncc(C(C)(C)C)o1)c1ccccc1,11%,-1.39
CN1C(=O)c2cc(C(F)(F)F)ccc2O[C@H]2CN(C(=O)COc3ccccc3)C[C@H]21,31%,-3.52
CS(=O)(=O)c1ccc(OC[C@@]2(CNS(=O)(=O)c3ccc(Cl)cc3)C[C@@H](O)[C@@H](O)C2)cc1,-8%,1.27
Cc1nnc([C@H]2CN(C(=O)c3ccccc3)CC23CCN(Cc2ccccc2)CC3)o1,-19%,2.81
CN(Cc1noc2c1CCCC2)C(=O)c1c[nH]nc1-n1cnnn1,-11%,1.54
O=C(Cc1ccon1)Nc1ncccc1-c1ccccc1,3%,-0.6
O=C(NC1(c2cc(F)ccc2F)CC1)[C@H]1CCC[C@H](O)C1,-2%,0.2
NC(=O)[C@H]1CCN(C(=O)c2ccc(Oc3ccc(Cl)cn3)cc2)C1,-10%,1.32
Cc1cc(F)ccc1NC(=O)c1cnn(-c2cccc(F)c2)c1C1CCN(C(=O)OC(C)(C)C)CC1,-6%,0.65
CC(C)c1ncc(NC(=O)c2ccc(S(C)(=O)=O)cc2)cn1,-12%,1.95
O=C(N[C@H]1CCN2C(=O)c3ccc(Cl)cc3NC(=O)[C@H]12)c1cccc(F)c1,8%,-1.09
CCCC[C@H](N)C(=O)N(C)Cc1ncc(Cl)n1C,-1%,0.08
Cc1nnc(NC(=O)CN(C)S(=O)(=O)c2ccc(Br)cc2)s1,9%,-0.98
Fc1ccc(Cc2nnc3sc(C4CCCCC4)nn23)cc1,1%,-0.12
Cc1cc(O)nc(C(C)N2CCOC(c3nc(C)cs3)C2)n1 (stereo unspecified),-6%,0.89
O=C1NC2(CCCCC2)C(=O)N1Cc1nc(-c2ccc(Cl)cc2)no1,30%,-3.03
CCN1CCN(CC(=O)N2CCCc3ccccc32)CC1,2%,-0.24

SMILES,% Inhibition,Z score
O=C(Nc1ccc(Cl)cc1Cl)c1ccc(C(=O)Nc2ccc(Cl)cc2Cl)s1,-3%,0.3
O=C(CCCc1nnc(C(=O)Nc2cccc(Cl)c2)s1)NCCN1CCOCC1,-6%,0.83
O=C(Nc1ccsc1)N[C@H]1C[C@H]2C(=O)NC[C@@H](CCC(=O)N3CCCC3)N2C1,-13%,1.65
N#Cc1ccc(N2C[C@H]3CC[C@@H](C2)N(CC2CC2)C3=O)nc1,0%,0.04
Cc1cnc(CN[C@H](c2ccc(F)c(Cl)c2)C2CC2)o1,-9%,1.78
CCN(C)C(=O)[C@H]1C[C@@](C)(C(=O)O)N(C)[C@H]1c1ccccc1,4%,-0.9
COCCC(=O)N1CCC2(CC1)N(Cc1cccc(F)c1)C(=O)C[S@+]2[O-],2%,-0.4
CN1CCC(n2nccc2NC(=O)c2nn(C)c(=O)c3ccccc23)CC1,-14%,2.55
COc1cc(C)c(-c2ccc(C(=O)N(C)C[C@H]3CC(=O)N(C)C3)cc2)cc1C,-2%,0.24
O=C(c1ccccc1Oc1ccccc1)N1CC2CCC(O)CC2C1 (stereo unspecified),16%,-2.08
COc1ccc(-c2nn(CN3CC(C)OC(C)C3)c(=S)o2)cc1OC (stereo unspecified),-3%,0.67
Cc1nc2cc(NC(=O)[C@@]3(C)CCCN(C(=O)c4ccccc4)C3)ccc2o1,55%,-8.5
CCCCOCC(=O)N(C)CCN(C)C1CC1,1%,-0.13
CN(CC(=O)N1CCCC1)C[C@H](O)COCc1ccc2c(c1)OCO2,-13%,1.3
CN(C)c1cccc(S(=O)(=O)Nc2cc(C(C)(C)C)no2)c1,2%,-0.25
Cc1nc(C2=C(O)CN(CCC(c3ccccc3)c3ccccc3)C2=N)sc1C,-3%,0.32
Cn1ncc2cc(S(=O)(=O)N[C@@H]3COc4ccccc4C3)cnc21,4%,-0.72
C[C@H](Nc1cccc(C(=O)NCc2ccccn2)c1)C1CC(F)(F)C1,6%,-1.09
Cc1nnc2n1CCN(C(=O)c1ccc3c(c1)OCCO3)C2,1%,-0.14
Cc1cccc(OCc2nc(C3CC3)n[nH]2)c1,-10%,1.48
CN(C)[C@H]1CCN(CC(=O)N2CC(OCc3cccc(F)c3)C2)C1,-16%,3.12

SMILES,% Inhibition,Z score
Fc1ccc(F)c(CN2CCN(Cc3ccno3)CC2)c1,4%,-0.62
O=C(Nc1ccc2oc(-c3cccnc3)nc2c1)c1cc2ccccc2o1,-10%,1.83
CN(C)Cc1noc(-c2ccccc2Oc2ccccc2)n1,-6%,0.8
O=C(NC[C@H]1CCCO1)C1CCN(S(=O)(=O)c2ccc3c(c2)CCCN3C(=O)C2CCC2)CC1,-14%,2.65
C[C@@H](C(=O)NCCN1C(=O)CCCC1=O)c1cccs1,-4%,0.45
COC[C@H]1CCCN1[C@@H]1[C@H](O)[C@H](CO)O[C@@H]1CNC(=O)c1ccccc1,-2%,0.3
CC(C)(C)OC(=O)NC1(C(=O)O)CC(c2ccccc2)C1 (stereo unspecified),-16%,2.02
COc1cccc(-c2ccc(N3CCCN(C(=O)CN(C(=O)C4CCC4)C4CC4)CC3)nn2)c1,-17%,1.49
CC(C)CCn1cccc1CNCC1CCOC1c1cnn(C)c1 (stereo unspecified),-11%,0.94
CN(Cc1cccc(N(C)C)c1)Cc1csc(-c2ccoc2)n1,-5%,0.54
COC(=O)c1ccc(Nc2ccc3[nH]c(C)cc3c2)nn1,10%,-1.44
CC(=O)N[C@H]1CCN(C(=O)c2ccc(-c3cc(O)c(F)c(F)c3)cc2)C1,12%,-1.64
Cc1n[nH]c(C)c1S(=O)(=O)Nc1cccc2cccnc12,-2%,0.25
C[C@@H]1CN(C(=O)c2ccc(C(F)(F)F)nc2)C[C@H](C)N1C,-5%,0.75
CCCn1cc(Cn2cnc3cnccc3c2=O)cn1,-14%,2.26
Cc1cc(CN(C)C(=O)[C@H]2CC(=O)N(c3ccccc3)C2)no1,-3%,0.62
COc1ccccc1CCNC(=O)c1cc(Cc2ccccc2Cl)no1,-4%,0.84
Cc1[nH][nH]c(=O)c1[C@H](CC(N)=O)c1cccc2cccnc12,-11%,1.4
CCCn1nccc1S(=O)(=O)NCCN1CCCC[C@@H]1CO,-15%,1.78
Cc1[nH]nc(-c2ccc(S(=O)(=O)Nc3ccccc3)s2)c1C,-5%,0.61
Cn1c(=O)ccc2ccc(NCc3ccncc3)cc21,-3%,0.57

SMILES,% Inhibition,Z score
COc1ccnc(C(=O)N(C)Cc2cscn2)c1,-11%,1.5
CN(Cc1ccncc1)Cc1ccc(C#N)o1,-3%,0.35
Cc1ccc(Nc2nc(C(=O)NC3CCCC3)cs2)c(C)c1,1%,-0.13
COc1ccccc1C1=NS(=O)(=O)N(C)C(C(=O)N2CCCc3ccccc32)=C1,-10%,1.86
Cc1noc(C)c1Cc1ccc(C(=O)N2CC3(C[C@H](CC(=O)N4CCOCC4)CO3)C2)o1,4%,-0.55
Cc1cnc(C(=O)NC2C[C@H]3CC[C@@H](C2)N3S(=O)(=O)c2ccccc2)cn1 (stereo partly specified),-7%,1.38
CN1CCN(c2ncccc2CNC(=O)NC2(C)Cc3ccccc3C2)CC1,10%,-1.23
CCOc1ccc(NC(=O)CCc2c(C)nn(-c3nc(C)cc(=O)[nH]3)c2C)cc1,4%,-0.72
CCN1C[C@@H](n2cc(COCc3ccccc3)nn2)CC1=O,-14%,1.2
C[C@H]1C(=O)NCCN1C(=O)c1coc(COc2cccc(C(F)(F)F)c2)n1,-8%,1.3
N#Cc1cnc(N(CC(=O)N2CCCC2)C[C@H]2CCCO2)c(Cl)c1,1%,-0.1
CO[C@@]1(C(=O)NCc2c(Cl)cccc2-n2ccnc2)CCOC1,-5%,0.72
Cn1cc(Br)c(C(=O)NCCn2cccn2)cc1=O,-8%,1.16
O=C(CCC1CCCC1)N1CCN2CCS(=O)(=O)N(C3CC3)C(=O)[C@@H]2C1,-9%,1.52
Cc1ccc(C(=O)N2CCC[C@]3(C4=CCOCC4)COCC[C@@H]23)c(O)c1,-3%,0.59
Cc1nc2ccc(NC(=O)N3CCCS(=O)(=O)C[C@@H]3C)cn2n1,-9%,1.09
Cc1ccc(F)c(N2CC[C@@H](C(=O)Nc3ccc(C(F)(F)F)cc3)C2=O)c1,-9%,1.34
COc1ccc(S(=O)(=O)N(CCc2ccccc2)c2ccccc2)cc1[C@@]1(C)NC(=O)NC1=O,-32%,4.28
O=C1CNc2ncc(Br)cc2N1,-6%,0.92
O=C(N[C@H]1CN(C(=O)COc2ccccc2)C[C@@H]1C1CC1)c1cnccn1,-14%,2.07
